Data as given in article PMC11995724, “Antibiotic target discovery by integrated phenotypic and activity-based profiling of electrophilic fragments” (Cell chemical biology, 2025).
Among all 3,200 compounds or so, about 75 (2%) showed an effect of 50% or more. The list shows a part of the results.

These compounds were tested on T1, S. aureus MSSA476. Conditions: relative growth, OD600, TSB; 25 µM; inhibitor.
T1 construct: MSSA476
Set-up: species or system S. aureus MSSA476 (TSB) or V. cholerae SAD30 (LB); 384-well bacterial growth screen at 25 uM, OD600 relative to DMSO control

**Q.** Which “% of control remaining” value does the source give for `CCc1cccc(CC)c1NC(=O)CCl` [4-F10, 2-chloro-N-(2,6-diethylphenyl)acetamide] here?
**A.** The value was 109.004%.

**Q.** How did the “% of control remaining” value turn out when `CN(Cc1ccccc1)S(=O)(=O)c1ccc(NC(=O)CCl)cc1` [5-K08, N-{4-[benzyl(methyl)sulfamoyl]phenyl}-2-chloroacetamide] was run?
**A.** The value was 87.0674%.

**Q.** With `Cc1cc(CNC(=O)CCl)[nH]n1` [7-L22, 2-chloro-N-[(3-methyl-1H-pyrazol-5-yl)methyl]acetamide] as the compound, how does the “% of control remaining” value read?
**A.** Its value is 99.843%.

**Q.** With `C=CC(=O)N1CCC(C(=O)N(C)Cc2cc(C(C)(C)C)[nH]n2)CC1` [2-F10, N-[(5-tert-butyl-1H-pyrazol-3-yl)methyl]-N-methyl-1-(prop-2-enoyl)piperidine-4-carboxamide] as the compound, how does the “% of control remaining” value read?
**A.** Its value is 100.957%.

**Q.** Which “% of control remaining” value does the source give for `C=CC(=O)NC1CCN(Cc2ccccc2)C1` (centres unmarked) [1-N15, N-(1-benzylpyrrolidin-3-yl)prop-2-enamide] here?
**A.** Its value is 116.044%.

**Q.** Which “% of control remaining” value does the source give for `CCc1cccc(CC)c1NC(=O)C(C#N)=Cc1ccc(C#N)cc1` [9-O15, 2-cyano-3-(4-cyanophenyl)-N-(2,6-diethylphenyl)prop-2-enamide] here?
**A.** Its value is 88.3895%.

**Q.** How did the “% of control remaining” value turn out when `C=CC(=O)N1CCC[C@H]1C(=O)Nc1cccc(C)n1` [1-B10, (2S)-N-(6-methylpyridin-2-yl)-1-(prop-2-enoyl)pyrrolidine-2-carboxamide] was run?
**A.** Its value is 113.231%.

**Q.** How did the “% of control remaining” value turn out when `CC(Cl)C(=O)NC1CCc2ccccc2-n2ccnc21` (centres unmarked) [7-E06, 2-chloro-N-{2,5-diazatricyclo[8.4.0.0,2,6]tetradeca-1(14),3,5,10,12-pentaen-7-yl}propanamide] was run?
**A.** Its value is 97.6452%.

**Q.** For `C=CC(=O)N1CCN(CC2CCOC2)CC1` (centres unmarked) [1-H18, 1-{4-[(oxolan-3-yl)methyl]piperazin-1-yl}prop-2-en-1-one], which “% of control remaining” value is on record?
**A.** Its value is 103.033%.

**Q.** `CC(Cl)C(=O)NCc1ccc(Cl)cc1` (centres unmarked) [6-I04, 2-chloro-N-[(4-chlorophenyl)methyl]propanamide] was tested. Which “% of control remaining” value did it give?
**A.** The value was 97.6585%.

**Q.** With `C=CC(=O)NCc1ccc(C(=O)N2CCCC2C(=O)N(C)C)cc1` (centres unmarked) [2-D22, N,N-dimethyl-1-{4-[(prop-2-enamido)methyl]benzoyl}pyrrolidine-2-carboxamide] as the compound, how does the “% of control remaining” value read?
**A.** Its value is 97.4761%.

**Q.** `CC(Cl)C(=O)N1CCCC1c1nc(-c2ccccc2)n[nH]1` (centres unmarked) [7-I09, 2-chloro-1-[2-(3-phenyl-1H-1,2,4-triazol-5-yl)pyrrolidin-1-yl]propan-1-one] was tested. Which “% of control remaining” value did it give?
**A.** Its value is 101.099%.

**Q.** With `CNc1ccc(C=C(C#N)C(=O)Nc2ccccc2F)cc1[N+](=O)[O-]` [8-N09, 2-cyano-N-(2-fluorophenyl)-3-[4-(methylamino)-3-nitrophenyl]prop-2-enamide] as the compound, how does the “% of control remaining” value read?
**A.** The value was 106.224%.

**Q.** How did the “% of control remaining” value turn out when `CSc1ccc(C=C(C#N)C(=O)Nc2ccc(C(=O)O)cc2)cc1` [9-M08, 4-{2-cyano-3-[4-(methylsulfanyl)phenyl]prop-2-enamido}benzoic acid] was run?
**A.** Its value is 103.97%.

**Q.** For `COc1ccccc1NC(=O)C(C#N)=Cc1ccc(F)cc1` [8-E18, 2-cyano-3-(4-fluorophenyl)-N-(2-methoxyphenyl)prop-2-enamide], which “% of control remaining” value is on record?
**A.** Its value is 117.842%.

**Q.** Which “% of control remaining” value does the source give for `Cc1cccc(C)c1NC(=O)CCl` [5-P20, 2-chloro-N-(2,6-dimethylphenyl)acetamide] here?
**A.** Its value is 101.639%.

**Q.** With `C=CC(=O)NC1CCN(c2nnnn2C)CC1` [3-G06, N-[1-(1-methyl-1H-1,2,3,4-tetrazol-5-yl)piperidin-4-yl]prop-2-enamide] as the compound, how does the “% of control remaining” value read?
**A.** The value was 85.677%.

**Q.** With `C=CC(=O)N1CCC(C(=O)NCC(C)(C)C2(O)CCCC2)CC1` [2-D14, N-[2-(1-hydroxycyclopentyl)-2-methylpropyl]-1-(prop-2-enoyl)piperidine-4-carboxamide] as the compound, how does the “% of control remaining” value read?
**A.** Its value is 126.719%.

**Q.** For `C=CC(=O)N1CCC(C(=O)Nc2cccc(NC(=O)C(C)C)c2)CC1` [3-F05, N-[3-(2-methylpropanamido)phenyl]-1-(prop-2-enoyl)piperidine-4-carboxamide], which “% of control remaining” value is on record?
**A.** Its value is 95.0805%.

**Q.** With `C=CC(=O)NCC1CC(CC(=O)O)CO1` (centres unmarked) [2-E03, 2-{5-[(prop-2-enamido)methyl]oxolan-3-yl}acetic acid] as the compound, how does the “% of control remaining” value read?
**A.** Its value is 113.49%.

**Q.** With `N#CC(=Cc1ccco1)C(=O)NC1CCN(c2ccc(F)cc2F)C1` (centres unmarked) [9-L09, 2-cyano-N-[1-(2,4-difluorophenyl)pyrrolidin-3-yl]-3-(furan-2-yl)prop-2-enamide] as the compound, how does the “% of control remaining” value read?
**A.** The value was 92.2846%.

**Q.** For `COc1cc(C=C(C#N)C(=O)NCc2ccccc2)cc2c1OCCO2` [9-I10, N-benzyl-2-cyano-3-(8-methoxy-2,3-dihydro-1,4-benzodioxin-6-yl)prop-2-enamide], which “% of control remaining” value is on record?
**A.** The value was 77.9026%.

**Q.** Which “% of control remaining” value does the source give for `Cc1ccccc1C(NC(=O)CCl)c1ccccc1C` [7-J04, N-[bis(2-methylphenyl)methyl]-2-chloroacetamide] here?
**A.** The value was 87.2841%.

**Q.** For `C=CC(=O)N1CCCC(n2cc(C)cn2)C1` (centres unmarked) [3-M12, 1-[3-(4-methyl-1H-pyrazol-1-yl)piperidin-1-yl]prop-2-en-1-one], which “% of control remaining” value is on record?
**A.** The value was 101.001%.

**Q.** With `O=C(CCl)Nc1ccc(S(=O)(=O)C(F)F)cc1` [4-N16, 2-chloro-N-(4-difluoromethanesulfonylphenyl)acetamide] as the compound, how does the “% of control remaining” value read?
**A.** Its value is 116.627%.

**Q.** `CC(Cl)C(=O)NC(C)C(=O)N1CCc2ccccc21` (centres unmarked) [7-M21, 2-chloro-N-[1-(2,3-dihydro-1H-indol-1-yl)-1-oxopropan-2-yl]propanamide] was tested. Which “% of control remaining” value did it give?
**A.** Its value is 100.785%.

**Q.** With `COc1ccc2ccccc2c1C=C(C#N)C(=O)NC1CCCCC1` [8-P18, 2-cyano-N-cyclohexyl-3-(2-methoxynaphthalen-1-yl)prop-2-enamide] as the compound, how does the “% of control remaining” value read?
**A.** Its value is 140.415%.

**Q.** Which “% of control remaining” value does the source give for `C=CC(=O)NCc1cc(-c2ccco2)on1` [1-A21, N-{[5-(furan-2-yl)-1,2-oxazol-3-yl]methyl}prop-2-enamide] here?
**A.** Its value is 130.462%.

**Q.** With `O=C(CCl)N1N=C(c2ccco2)CC1c1cccc(Cl)c1` (centres unmarked) [5-M17, 2-chloro-1-[5-(3-chlorophenyl)-3-(furan-2-yl)-4,5-dihydro-1H-pyrazol-1-yl]ethan-1-one] as the compound, how does the “% of control remaining” value read?
**A.** The value was 81.9672%.
